# In the supplement of paper PMC3334620:
# Over roughly 33,000 sequences, “E-score (-0.5 to 0.5)” has its median near -0.035; the highest 2% begin near 0.34. The list shows a part of the results.
# Biological target: T1, Mot3 (UniProt P54785)
# T1 sequence: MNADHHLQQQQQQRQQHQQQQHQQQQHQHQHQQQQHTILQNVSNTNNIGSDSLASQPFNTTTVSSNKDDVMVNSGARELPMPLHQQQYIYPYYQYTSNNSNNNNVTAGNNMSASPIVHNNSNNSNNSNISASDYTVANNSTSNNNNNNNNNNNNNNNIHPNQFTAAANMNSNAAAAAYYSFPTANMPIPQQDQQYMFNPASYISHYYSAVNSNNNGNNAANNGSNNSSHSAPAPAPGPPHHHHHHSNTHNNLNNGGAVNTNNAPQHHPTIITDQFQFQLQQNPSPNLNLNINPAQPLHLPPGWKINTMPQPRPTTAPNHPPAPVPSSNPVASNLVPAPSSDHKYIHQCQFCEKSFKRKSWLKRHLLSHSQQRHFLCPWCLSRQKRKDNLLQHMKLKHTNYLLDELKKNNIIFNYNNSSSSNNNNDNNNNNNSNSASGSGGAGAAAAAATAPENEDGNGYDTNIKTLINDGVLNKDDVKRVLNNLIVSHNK
# Assay: PBM E-score (8-mer binding enrichment) (E-score (-0.5 to 0.5)); higher = stronger / more preferred TF binding; most listed sequences are background and not binding sites
# Conditions: protein concentration: 200 nM; construct: GST-full length
# Method in brief: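 The E-score, a modified Wilcoxon-Mann-Whitney statistic, was computed by the Universal PBM Analysis Suite for every ungapped eight-base word pooled with its reverse complement. Scans behind it were normalised with masliner after bound GST-tagged yeast transcription factors were detected with fluorescent anti-GST. The proteins, at about 100-200 nM, had been applied to universal all-10-mer Agilent arrays made double-stranded by primer extension.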
row,Sequence,PBM E-score
1,GTGACACA,0.0545
2,CTATTCAA,0.084
3,AGGGGTAC,-0.0837
4,ACCGGGAA,-0.0555
5,GGAGCCCA,-0.183
6,GACTGTAA,0.147
7,GGGGCCAA,-0.303
8,AGAGCTGG,-0.28
9,ACTTAGGA,0.12
10,GTAGTTAA,0.229
11,GCCTTTGA,0.304
12,GAGTAGGC,0.179
13,CACCTGGC,-0.125
14,ATACGGTA,-0.0734
15,ATACCACA,0.0752
16,GCGGTAGC,-0.235
17,ATAATGAT,0.0465
18,GAAAAAAC,0.136
19,CTTTCTCA,0.162
20,AGGTGCCA,-0.0193
21,AGATGGAG,-0.111
22,CTTGATGC,-0.0379
23,AAGAACTT,0.0188
24,ACCCAACC,-0.133
25,TCGGCAGA,-0.14

row,Sequence,PBM E-score
1,GAGACGAA,-0.172
2,GCGTCTCC,-0.056
3,CGTGTTCC,0.221
4,CGAGACCC,-0.0978
5,CTTCGTTC,-0.0566
6,CCAGGTGA,-0.0709
7,ACCGCTTC,-0.267
8,AGGGGGAC,-0.298
9,CCAATCTC,-0.0686
10,ACCTAACC,-0.00768
11,ACATGACA,0.343
12,AAATCAAG,0.0542
13,CCAAATAA,0.105
14,GTATCTTA,0.0793
15,ATGGTATG,0.0834
16,CCCCGATC,-0.356
17,CTATATTC,-0.0131
18,CTAATGGA,-0.297
19,ACGAGGCT,0.0334
20,GGGCATGA,-0.153
21,CCGAGCAG,-0.158
22,AACACCAG,-0.105
23,ATTAACCA,0.0114
24,CCTCCGGA,-0.264
25,GTGTTTTA,0.219

row,Sequence,PBM E-score
1,AACGAGGT,-0.0123
2,AGTACACT,0.0534
3,GTTCCGAA,-0.0115
4,TCAGCAGA,-0.256
5,AACTGGTA,-0.115
6,TTTCAAAA,0.193
7,TAGGGGGA,-0.264
8,TAGCGGGA,-0.137
9,GCTACAAC,-0.0719
10,CTACAATA,0.101
11,TAACTGCA,0.0264
12,CGCTCGTA,-0.0689
13,AAGTGAGA,-0.207
14,ATTCTCTC,-0.103
15,ATCATCAA,-0.172
16,TCGATGAA,0.14
17,GTCAAGCA,-0.145
18,AGTTAAAT,0.0894
19,GTCCCTCA,-0.316
20,CGGTCTCA,-0.151
21,ATCTCCAA,-0.0721
22,CCGGAAGC,-0.344
23,ACAGTAAG,-0.0563
24,ATTCAACC,-0.106
25,TAAGTGGA,0.0328

row,Sequence,PBM E-score
1,AGTCGCTG,0.0387
2,GCACCGCA,0.0358
3,ACAGATTC,0.137
4,AAGTGTCT,0.0575
5,ATTTACAG,0.228
6,AAAGAGTC,-0.253
7,ACCGCCAC,-0.0442
8,ATCGGCAA,-0.0592
9,ACTGCAGC,-0.192
10,AAGGAATT,-0.0259
11,GCCGCCCC,-0.286
12,TGTCGACA,0.111
13,AGGTGAAG,0.0316
14,GTACATAA,0.306
15,AAACTCGG,-0.0447
16,ACCTCCTG,-0.158
17,ACCCTGGG,-0.193
18,GATCAAGA,-0.0898
19,CACCGAGG,-0.146
20,AATGAAAC,0.186
21,AACGCGGG,0.0474
22,CATCAGCC,-0.218
23,ACCTGGGG,-0.106
24,CCGCTTAA,-0.0697
25,CGACGCCC,-0.151

row,Sequence,PBM E-score
1,CATGATCA,0.142
2,CCAGAGGC,-0.247
3,CTGCATTA,0.0247
4,TAAGAGTA,-0.0163
5,GGACTGGA,-0.236
6,AGGCTATA,0.157
7,AGATATTA,-0.212
8,CCAGCCAG,-0.318
9,AGACGCCA,-0.221
10,GCGATCCA,-0.135
11,TACCTTCA,0.376
12,CATTAATA,0.101
13,GTGGAGTA,-0.114
14,ACGTCTCG,0.0294
15,ACGAACGG,-0.0309
16,AATAGAGA,-0.0351
17,GCATAGAA,0.074
18,CATCCCCA,-0.119
19,CAAGCGAG,-0.0117
20,CCGCGCGC,-0.274
21,AACCGTGG,-0.132
22,ACCCAGTA,-0.0631
23,GGTAGACA,-0.0476
24,ATCTCTTA,0.116
25,CTGCTGCC,0.0731

row,Sequence,PBM E-score
1,AAGCAGCT,-0.0995
2,ATGTGCAC,-0.044
3,AGAGTCCC,-0.341
4,CTCACACA,-0.0904
5,GAATGTCA,0.00909
6,CCAGACCA,-0.0567
7,GCTAGAAA,0.00459
8,AGAATTAC,0.241
9,GACACACC,0.12
10,TGAGCCAA,-0.0395
11,CTATGCAC,0.00726
12,CAACTGGA,-0.287
13,GATGCGCC,0.0303
14,AAGAATTG,0.0628
15,ACGCTAGC,-0.0971
16,TAGCCATA,-0.0449
17,ATGGGAGC,-0.193
18,ATCTCCCC,-0.218
19,AGTGCATA,0.0511
20,ATGGGTCA,-0.107
21,ACAAATTA,0.121
22,CCCTTAGA,-0.275
23,CGTTCTCA,0.0295
24,TGACACAA,0.163
25,AATGTGTC,-0.00988

row,Sequence,PBM E-score
1,CCATCCCA,-0.197
2,ACTACGCA,0.181
3,CAGAGAGC,-0.316
4,AACGGGCC,-0.116
5,GGTTCGAC,-0.00155
6,CAACCATC,-0.207
7,GCAAGCCC,0.00825
8,CATGCGGC,0.0009
9,ATAGCAAA,0.0517
10,GTATGAGA,-0.0168
11,CCAAGCGA,-0.139
12,ATGAGGAA,0.148
13,AAGCGCGG,-0.00731
14,ATCCCATA,-0.0721
15,CAAGTTGG,0.00951
16,CCCGACAC,-0.125
17,CATGGTCC,-0.0336
18,AGTCACAA,0.067
19,ATACTGCG,-0.0976
20,AACCTTTC,-0.107
21,ATTGTCGG,-0.119
22,GCGTGAGA,-0.00843
